The other results are listed elsewhere or left out.

For 26 compounds, cytotoxicity call and growth inhibition call results are on record in the antibiotic and cytotoxicity screens of Wong et al. (2023).

In one experiment the test system is HSkMC. Nature of the experiment: cytotoxicity call (relative viability < 0.9). As to conditions: 10 µM.
The subject of a further experiment is HepG2. Nature of the experiment: cytotoxicity call (relative viability < 0.9). As to conditions: 10 µM.
The subject of a further experiment is S. aureus RN4220. Nature of the experiment: growth inhibition call (relative growth <= 0.2). As to conditions: 50 µM.

On to `COc1ccc(CNC(=O)C[C@@H]2C[C@@H]3c4cc(NC(=O)NC5CCCC5)ccc4O[C@@H]3[C@H](CO)O2)cc1`, for which the cytotoxicity call in the experiment on HSkMC and with HepG2 was “inactive” each time. Also, the growth inhibition call in the experiment on S. aureus RN4220 is “inactive”.
Consider `Cc1ccc(S(=O)(=O)Nc2cccc3c2O[C@@H](CN(C)C(=O)Nc2ccc(C(F)(F)F)cc2)[C@H](C)CN([C@H](C)CO)C3=O)cc1`, for which the cytotoxicity call with HSkMC and in the experiment on HepG2 was “inactive” each time. The growth inhibition call in the experiment on S. aureus RN4220 was “inactive”.
As for `C[C@@H]1CN([C@@H](C)CO)C(=O)c2cccc(NC(=O)Nc3ccc(F)cc3)c2O[C@@H]1CN(C)Cc1ccc(C(=O)Nc2ccccc2N)cc1`, the cytotoxicity call in the experiment with HSkMC is “inactive”. Moreover, the cytotoxicity call with HepG2 was “active”. In addition, the growth inhibition call in the experiment with S. aureus RN4220 is “inactive”.
Turning to `COc1ccc(S(=O)(=O)Nc2cccc3c2O[C@@H](CN(C)S(=O)(=O)c2ccc(F)cc2)[C@H](C)CN([C@H](C)CO)C3=O)cc1`, the cytotoxicity call with HSkMC and in the experiment with HepG2 was “inactive” each time. Besides, the growth inhibition call in the experiment with S. aureus RN4220 was “inactive”.
Take `C=CCC[C@H](Cc1ccc(F)cc1)C(=O)OC[C@H](Cc1c[nH]c2ccccc12)NC(=O)[C@@H](CC=C)CC(=O)N(CCO)Cc1ccccc1`: the cytotoxicity call in the experiment with HSkMC and in the experiment with HepG2 was “active” each time. The growth inhibition call with S. aureus RN4220 was “inactive”.
On to `C[C@H](CO)N1C[C@H](C)[C@H](CN(C)Cc2ccc(C(F)(F)F)cc2)OCCCC[C@H](C)Oc2ccc(NC(=O)Nc3ccc(F)cc3)cc2C1=O`, for which the cytotoxicity call in the experiment with HSkMC is “inactive”. Also, the cytotoxicity call in the experiment with HepG2 was “active”. The growth inhibition call in the experiment with S. aureus RN4220 is “inactive”.
In the case of `Cl.Cl.O=C1c2c(O)ccc(O)c2C(=O)c2c(NCCNCCO)ccc(NCCNCCO)c21`, the cytotoxicity call in the experiment with HSkMC and in the experiment on HepG2 was “active” each time. For the same compound, the growth inhibition call in the experiment on S. aureus RN4220 is “inactive”.
Regarding `COc1ccccc1N1C(N)=NC(N)=NC1(C)C`, the cytotoxicity call in the experiment with HSkMC and in the experiment on HepG2 was “inactive” throughout. For the same compound, the growth inhibition call with S. aureus RN4220 is “inactive”.
Regarding `C[C@@H]1CN([C@H](C)CO)C(=O)c2cccc(NC(=O)c3ccncc3)c2O[C@H]1CN(C)C(=O)Nc1ccc2c(c1)OCO2`, the cytotoxicity call in the experiment with HSkMC and in the experiment on HepG2 was “inactive” each time. Also, the growth inhibition call in the experiment with S. aureus RN4220 is “inactive”.
As to `COc1ccc(NC(=O)N(C)C[C@@H]2OCCCC[C@@H](C)Oc3ccc(NC(=O)Cc4ccccc4)cc3C(=O)N([C@@H](C)CO)C[C@@H]2C)cc1`, the cytotoxicity call in the experiment with HSkMC and with HepG2 was “inactive” each time. For the same compound, the growth inhibition call in the experiment with S. aureus RN4220 was “inactive”.
For `C[C@@H]1CN([C@H](C)CO)C(=O)CCCn2nncc2CO[C@H]1CN(C)S(=O)(=O)c1ccc(Oc2ccccc2)cc1`, the cytotoxicity call with HSkMC and with HepG2 was “inactive” each time. Besides, in the experiment on S. aureus RN4220, the growth inhibition call is “inactive”.
Regarding `COc1ccc([Si](C)(C)[C@@H]2[C@@H](CCO)O[C@]3(C(=O)N(Cc4ccccc4)c4ccc(N5C(=O)c6ccccc6Oc6ccccc65)cc43)[C@H]2C)cc1`, the cytotoxicity call in the experiment with HSkMC and in the experiment with HepG2 was “inactive” each time. The growth inhibition call in the experiment on S. aureus RN4220 was “inactive”.
As for `CC(=O)Nc1ccc(C(=O)O)cc1`, the cytotoxicity call with HSkMC and in the experiment on HepG2 was “inactive” each time. In addition, the growth inhibition call in the experiment on S. aureus RN4220 was “inactive”.
With `O=C(C[C@H]1C[C@@H]2c3cc(NS(=O)(=O)c4ccc(F)cc4)ccc3O[C@@H]2[C@@H](CO)O1)NCCN1CCCCC1`, the cytotoxicity call in the experiment with HSkMC and in the experiment on HepG2 was “inactive” in each case. In addition, in the experiment on S. aureus RN4220, the growth inhibition call is “inactive”.
With `CCN(CC)CC(=O)Nc1c(C)cccc1C.Cl`, the cytotoxicity call with HSkMC and in the experiment on HepG2 was “inactive” throughout. The growth inhibition call in the experiment on S. aureus RN4220 is “inactive”.
For `C[C@H]1CN([C@@H](C)CO)C(=O)Cc2cc(NC(=O)Nc3ccc(C(F)(F)F)cc3)ccc2O[C@H]1CN(C)Cc1ccncc1`, in the experiment with HSkMC, the cytotoxicity call was “inactive”. Further, in the experiment on HepG2, the cytotoxicity call was “active”. Also, the growth inhibition call with S. aureus RN4220 is “inactive”.
Regarding `CN1CCN(C(=O)C[C@H]2CC[C@@H]3[C@H](COC[C@@H](O)CN3C(=O)C3CCOCC3)O2)CC1`, the cytotoxicity call in the experiment on HSkMC and in the experiment with HepG2 was “inactive” each time. For the same compound, in the experiment on S. aureus RN4220, the growth inhibition call was “inactive”.
For the compound `Cc1noc(C)c1S(=O)(=O)N(C)C[C@@H]1Oc2ccc(NS(=O)(=O)c3ccc(F)cc3)cc2CC(=O)N([C@H](C)CO)C[C@@H]1C`, the cytotoxicity call in the experiment with HSkMC and in the experiment with HepG2 was “inactive” each time. Further, the growth inhibition call in the experiment with S. aureus RN4220 was “inactive”.
As to `CC(=O)O`, the cytotoxicity call in the experiment on HSkMC and with HepG2 was “inactive” each time. In addition, the growth inhibition call in the experiment on S. aureus RN4220 was “inactive”.
For the compound `CO[C@@H]1CN(C)C(=O)c2ccc(NS(=O)(=O)c3cn(C)cn3)cc2OC[C@@H](C)N(Cc2cccc(F)c2)C[C@H]1C`, the cytotoxicity call in the experiment with HSkMC and in the experiment on HepG2 was “inactive” in each case. In the experiment with S. aureus RN4220, the growth inhibition call was “inactive”.
Take `C[C@H]1CN([C@@H](C)CO)C(=O)Cc2cc(NS(=O)(=O)c3cn(C)cn3)ccc2O[C@@H]1CN(C)CC1CC1`: the cytotoxicity call with HSkMC and in the experiment on HepG2 was “inactive” each time. For the same compound, the growth inhibition call with S. aureus RN4220 is “inactive”.
As for `COc1ccc(S(=O)(=O)Nc2ccc3c(c2)C(=O)N([C@@H](C)CO)C[C@H](C)[C@@H](CN(C)CC2CC2)O3)cc1`, the cytotoxicity call in the experiment with HSkMC and in the experiment with HepG2 was “inactive” in each case. The growth inhibition call in the experiment with S. aureus RN4220 was “inactive”.
Regarding `CC(C)(O)[C@@H](O)Cc1cc(O)ccc1O[C@H]1O[C@@H](CO)[C@@H](O)[C@@H](O)[C@@H]1O`, the cytotoxicity call in the experiment on HSkMC (human skeletal muscle cells) and in the experiment with HepG2 was “inactive” throughout. Moreover, the growth inhibition call in the experiment with S. aureus RN4220 is “inactive”.
With `C[C@H]1CN([C@@H](C)CO)C(=O)Cc2cc(NC(=O)C3CC3)ccc2O[C@H]1CN(C)S(=O)(=O)c1cccs1`, the cytotoxicity call with HSkMC and with HepG2 was “inactive” in each case. Further, the growth inhibition call in the experiment on S. aureus RN4220 is “inactive”.
As to `CC1(C)[C@@H](OC(=O)CCC(=O)O)CC[C@@]2(C)[C@H]1CC[C@]1(C)[C@H]2C(=O)C=C2[C@@H]3C[C@@](C)(C(=O)O)CC[C@]3(C)CC[C@]21C`, the cytotoxicity call in the experiment with HSkMC and with HepG2 was “inactive” in each case. Besides, the growth inhibition call with S. aureus RN4220 is “inactive”.
As for `C/C=C/c1cnc2c(c1)C(=O)N([C@@H](C)CO)C[C@H](C)[C@H](CN(C)S(=O)(=O)c1ccc(OC)cc1)O2`, the cytotoxicity call with HSkMC and in the experiment with HepG2 was “inactive” in each case. Besides, the growth inhibition call in the experiment on S. aureus RN4220 was “inactive”.
